# This is one part of the list. Sequences were assembled here from the parent chain. Inactive controls read about 0.05.
# B1: TEV protease; numbered along this chain (parent)
# chain: MGESLFKGPRDYNPISSSICHLTNESDGHTTSLYGIGFGPFIITNKHLFRRNNGTLVVQSLHGVFKVKDTTTLQQHLVDGRDMIIIRMPKDFPPFPQKLKFREPQREERICLVTTNFQTKSMSSMVSDTSCTFPSGDGIFWKHWIQTKDGQCGSPLVSTRDGFIVGIHSASNFTNTNNYFTSVPKNFMELLTNQEAQQWVSGWRLNADSVLWGGHKVFMVKPEEPFQPVKEATQL
# Variants of: B1
# Test: raw area under fraction-flipped curve 0-4 h after induction (AUC4h, not background-subtracted), DNA-recorder readout of cleavage of the substrate (dimensionless); higher = more cleavage of the substrate by the protease variant
# Details: temperature: 34 °C; time window: 0-4 h after rhamnose induction
# Experimental: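 In vivo DNA recorder in E. coli TOP10(DE3) ΔrhaA at 34 °C. Each TEVp single-site mutant (parent TEVp 0) is paired with a single-site variant of the 7-mer TEVs (canonical ENLYFQ|S). The substrate sits between flexible linkers in a Bxb1-sfGFP-TEVs-SsrA fusion, so cleavage stabilises Bxb1 and speeds flipping of a recombination array, read by NGS. The value is the raw area under the fraction-flipped curve over 0-4 h after rhamnose induction (AUC4h), with ≥20 reads per time point. It is not background-subtracted; inactive controls average about 0.047.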
# 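Also: Bxb1 expression induced with 0.2% (w/v) L-rhamnose at OD600 near 0.5, cultures sampled hourly, flipped fraction per protease–substrate barcode pair counted by paired-end Illumina sequencing.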
Variant,area with substrate CNLYFQS,area with substrate FNLYFQS,area with substrate GNLYFQS,area with substrate NNLYFQS,area with substrate TNLYFQS,area with substrate VNLYFQS,area with substrate WNLYFQS,area with substrate YNLYFQS,area with substrate MNLYFQS,area with substrate HNLYFQS,area with substrate INLYFQS,area with substrate KNLYFQS,area with substrate LNLYFQS,area with substrate SNLYFQS,area with substrate PNLYFQS,area with substrate QNLYFQS,area with substrate RNLYFQS
S154T,0.0695,0.0644,0.0755,0.0732,0.081,0.053,0.0501,0.0888,,,,,,,,,
S154Y,0.0552,0.0625,0.055,0.0633,0.0537,0.0612,0.0646,,0.0587,,,,,,,,
S154K,0.0667,0.0474,0.0582,0.0693,0.0553,,0.0525,,0.0557,0.0487,0.0567,0.0563,0.0572,0.0523,,,
L156T,0.0649,0.0409,0.0743,0.0646,0.0696,0.109,0.0577,,0.0604,0.0688,0.0633,0.0409,0.0662,,,,
F133H,0.0632,,0.0801,,0.0785,,0.0754,,0.0639,,,,0.0613,,,,
F133R,0.0816,,0.0884,0.0641,0.0819,0.0727,0.0738,0.0602,0.103,,0.0737,0.0826,,,0.0594,0.0732,0.0711
F133A,0.0664,0.0618,,0.0673,0.0606,0.0701,0.0601,,0.062,,,,0.0662,,0.0699,,
F133I,0.0774,,0.0766,,0.0539,,,0.0589,,0.0663,0.0662,0.0689,,,,,0.0508
C131V,0.0589,,,0.0759,,,,,0.0732,,0.0696,0.0695,,,,,
W141E,0.056,0.0443,,,0.0496,,0.0375,0.0543,,0.0524,,0.0541,,0.057,,,0.0566
S124N,0.0282,0.0731,,,0.055,0.09,0.0609,,,0.0691,,,0.0701,,0.056,,
S124H,0.0711,0.0622,0.0643,0.0828,,,,0.0634,0.0817,0.0646,0.0831,,0.0885,0.078,,,
S124L,0.0548,,,,0.0683,,0.0775,0.0557,0.0676,0.0517,,0.0665,,,0.0602,,
D137I,0.0694,0.0655,,,0.0522,,0.0645,0.0488,0.0721,0.0532,,,,0.0533,0.0707,,
H143F,0.0671,,,0.0682,0.0653,,,,,,,,0.0452,,0.0491,,
K142A,0.0655,0.073,0.0823,,0.0647,,0.054,0.0811,,0.0686,0.0661,0.0736,0.0693,,0.0982,,
G153K,0.0891,,0.045,,,,,,0.0486,0.046,,0.0432,0.0322,0.0528,0.0465,,
T147H,0.0625,0.0559,,,,,0.0685,,,,0.0638,,0.0806,,0.0605,,0.0624
T147K,0.0605,,0.0638,,0.0573,0.0596,0.0506,,,0.0549,0.0575,0.0705,,,,0.0454,0.048

# Source: the supplement of paper PMC12217912
